Measured values taken from US20250381289A1 (Genmab, published 2025).

Columns and labels:
[1] = target: T1, EGFR on EGFR and cMET co-expressed tumor cell lines (UniProt P00533); assay: flow cytometry, HT-29 cells (co-express EGFR and cMET; both arms contribute)
T1 construct: whole, on cells

[2] = target: T2, cMET on EGFR and cMET co-expressed tumor cell lines (UniProt P08581); assay: as above
T2 construct: whole, on cells

[3] = target: T1, EGFR on EGFR and cMET co-expressed …; assay: flow cytometry, EBC-1 cells (co-express EGFR and cMET; both arms contribute)
[4] = target: T2, cMET on EGFR and cMET co-expressed …; assay: as above
[5] = target: T3, human Sema3A recombinant protein (human, UniProt Q14563 21-771, limits assumed); assay: ELISA, coated human Sema3A, anti-human Fc-HRP
T3 sequence (looked up): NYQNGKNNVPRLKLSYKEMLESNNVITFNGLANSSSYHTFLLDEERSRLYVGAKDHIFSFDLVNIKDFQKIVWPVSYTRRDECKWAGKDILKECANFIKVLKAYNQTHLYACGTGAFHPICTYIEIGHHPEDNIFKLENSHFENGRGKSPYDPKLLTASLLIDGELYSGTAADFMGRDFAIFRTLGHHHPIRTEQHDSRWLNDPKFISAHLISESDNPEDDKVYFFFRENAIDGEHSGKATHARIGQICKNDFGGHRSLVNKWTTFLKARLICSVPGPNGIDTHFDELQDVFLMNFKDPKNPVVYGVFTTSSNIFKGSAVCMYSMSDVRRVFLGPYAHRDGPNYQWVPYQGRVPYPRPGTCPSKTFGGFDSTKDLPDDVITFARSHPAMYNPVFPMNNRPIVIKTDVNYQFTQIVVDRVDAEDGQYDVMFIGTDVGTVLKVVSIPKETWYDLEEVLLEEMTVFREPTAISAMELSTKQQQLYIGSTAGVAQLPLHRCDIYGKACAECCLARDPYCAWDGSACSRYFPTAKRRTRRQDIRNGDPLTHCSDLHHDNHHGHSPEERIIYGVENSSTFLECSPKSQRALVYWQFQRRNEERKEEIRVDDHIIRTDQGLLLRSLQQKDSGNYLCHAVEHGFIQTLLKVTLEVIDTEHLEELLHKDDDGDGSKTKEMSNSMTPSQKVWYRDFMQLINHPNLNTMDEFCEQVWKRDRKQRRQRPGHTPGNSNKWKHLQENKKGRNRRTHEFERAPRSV

[6] = target: T1, EGFR on EGFR and cMET co-expressed …; assay: flow cytometry, CAL-27 cells (co-express EGFR and cMET; both arms contribute)
[7] = target: T2, cMET on EGFR and cMET co-expressed …; assay: as above
[8] = target: T4, Human cMET (human); assay: ELISA, coated human cMET, anti-human Fc-HRP
T4 construct: recombinant protein; also called human cMET recombinant protein

[9] = target: T1, EGFR on EGFR and cMET co-expressed …; assay: flow cytometry, A431 cells (co-express EGFR and cMET; both arms contribute)
[10] = target: T2, cMET on EGFR and cMET co-expressed …; assay: as above
[11] = target: T5, Human EGFR (human, UniProt P00533); assay: ELISA, coated human EGFR, anti-human Fc-HRP
T5 construct: recombinant protein; also called human EGFR recombinant protein

[12] = target: T1, EGFR on EGFR and cMET co-expressed …; assay: flow cytometry, SW620 cells (named among the EGFR and cMET co-expressing lines; both arms contribute)
[13] = target: T2, cMET on EGFR and cMET co-expressed …; assay: as above
[14] = target: T1, EGFR on EGFR and cMET co-expressed …; assay: flow cytometry, KYSE-30 cells (co-express EGFR and cMET; both arms contribute)
[15] = target: T2, cMET on EGFR and cMET co-expressed …; assay: as above
[16] = target: T1, EGFR on EGFR and cMET co-expressed …; assay: flow cytometry, MKN-45 cells (co-express EGFR and cMET; both arms contribute)
[17] = target: T2, cMET on EGFR and cMET co-expressed …; assay: as above
[18] = target: T6, human HER4 recombinant protein (human, UniProt Q15303 26-649, limits assumed); assay: ELISA, coated human HER4, anti-human Fc-HRP
T6 sequence (looked up): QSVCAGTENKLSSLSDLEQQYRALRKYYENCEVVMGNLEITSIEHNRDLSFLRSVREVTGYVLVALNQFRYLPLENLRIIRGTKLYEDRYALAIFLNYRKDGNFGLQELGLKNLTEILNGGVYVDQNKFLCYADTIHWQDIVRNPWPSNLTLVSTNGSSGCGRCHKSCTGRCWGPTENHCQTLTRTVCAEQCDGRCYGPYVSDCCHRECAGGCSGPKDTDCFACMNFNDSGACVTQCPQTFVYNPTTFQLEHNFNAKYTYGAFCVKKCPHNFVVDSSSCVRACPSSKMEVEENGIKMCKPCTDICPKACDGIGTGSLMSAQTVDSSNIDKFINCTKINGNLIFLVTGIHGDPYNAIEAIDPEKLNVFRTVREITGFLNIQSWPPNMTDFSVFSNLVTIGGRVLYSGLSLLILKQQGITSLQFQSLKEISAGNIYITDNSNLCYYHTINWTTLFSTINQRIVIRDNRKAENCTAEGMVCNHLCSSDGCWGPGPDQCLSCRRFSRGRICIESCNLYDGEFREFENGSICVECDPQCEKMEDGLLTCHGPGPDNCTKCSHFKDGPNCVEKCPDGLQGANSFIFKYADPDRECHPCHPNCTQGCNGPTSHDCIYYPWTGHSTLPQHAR

[19] = target: T1, EGFR on EGFR and cMET co-expressed …; assay: flow cytometry, SNU-5 cells (co-express EGFR and cMET; both arms contribute)
[20] = target: T2, cMET on EGFR and cMET co-expressed …; assay: as above
[21] = target: human HER3 recombinant protein (human, UniProt P21860 partial chain); assay: ELISA, coated human HER3, anti-human Fc-HRP

B1: Bsab 67-LD038 (8) (bispecific antibody, human IgG1, kappa, L234A L235A)
chain 1: AIQLTQSPESLSASVGDRVTITCRASQDISSALVWYQQKPGKAPKLLIYDASSLESGVPDRFSGSESGTDFTLTISSLQPEDFATYYCQQFNSYPLTFGGGTKVEIKRTVAAPSVFIFPPSDEQLKSGTASVVCLLNNFYPREAKVQWKVDNALQSGNSQESVTEQDSKDSTYSLSSTLTLSKADYEKHKVYACEVTHQGLSSPVTKSFNRGECGGGGSGGGGSGGGGSGGGGSGGGGSGGGGSGGGGSGGGGSQVQLVESGGGVVQPGRSLRLSCAASGFTFSTYGMHWVRQAPGQGLEWVAVIWDDGSYKYYGDSVKGRFTISRDNSKNTLYLQMNSLRAEDTAVYYCARDGITMVRGVMKDYFDYWGQGTLVTVSSASTKGPSVFPLAPSSKSTSGGTAALGCLVKDYFPEPVTVSWNSGALTSGVHTFPAVLQSSGLYSLSSVVTVPSSSLGTQTYICNVNHKPSNTKVDKKV[omitted - human IgG1 Fc with L234A L235A Y349C T366W (EU numbers)]
chain 2: DIVMTQSPDSLAVSLGERATINCKSSESVDSYANSFLHWYQQKPGQPPKLLIYRASTRESGVPDRFSGSGSGTDFTLTISSLQAEDVAVYYCQQSKEDPLTFGGGTKVEIKRTVAAPSVFIFPPSDEQLKSGTASVVCLLNNFYPREAKVQWKVDNALQSGNSQESVTEQDSKDSTYSLSSTLTLSKADYEKHKVYACEVTHQGLSSPVTKSFNRGECGGGGSGGGGSGGGGSGGGGSGGGGSGGGGSGGGGSGGGGSQVQLVQSGAEVKKPGASVKVSCKASGYIFTAYTMHWVRQAPGQGLEWMGWIKPNNGLANYAQKFQGRVTMTRDTSISTAYMELSRLRSDDTAVYYCARSEITTEFDYWGQGTLVTVSSASTKGPSVFPLAPSSKSTSGGTAALGCLVKDYFPEPVTVSWNSGALTSGVHTFPAVLQSSGLYSLSSVVTVPSSSLGTQTYICNVNHKPSNTKVDKKVEPKSCDKTHTCPPCPAPEAAGGPSVFLFPPKPKDTLMISRTPEVTCVVVDVSHEDPEVKFNWYVDGVEVHNAKTKPREEQYNSTYRVVSVLTVLHQDWLNGKEYKCKVSNKALPAPIEKTISKAKGQPREPQVYTLPPCRDELTKNQVSLSCAVKGFYPSDIAVEWESNGQPENNYKTTPPVLDSDGSFFLVSKLTVDKSRWQQGNVFSCSVMHEALHNHYTQKSLSLSPGK
modifications: LD038 drug-linker coupled after TCEP reduction; DAR 8.1 by LC-MS; sites not given
notes: also called Basb 67-LD038 (8)
- EC50 (read off the curve) [1]: ~2 nM
- EC50 (read off the curve) [2]: ~2 nM
- EC50 (read off the curve) [3]: ~3 nM
- EC50 (read off the curve) [4]: ~3 nM
- binding result [5]: no binding (tested: about 120 nM)
- EC50 (read off the curve) [6]: ~4 nM
- EC50 (read off the curve) [7]: ~4 nM
- EC50 (read off the curve) [8]: ~2 nM
- EC50 (read off the curve) [9]: ~4 nM
- EC50 (read off the curve) [10]: ~4 nM
- EC50 (read off the curve) [11]: ~0.5 nM
- EC50 (read off the curve) [12]: ~0.9 nM
- EC50 (read off the curve) [13]: ~0.9 nM
- EC50 (read off the curve) [14]: ~6 nM
- EC50 (read off the curve) [15]: ~6 nM
- EC50 (read off the curve) [16]: ~7 nM
- EC50 (read off the curve) [17]: ~7 nM
- binding result [18]: no binding (tested: about 130 nM)
- EC50 (read off the curve) [19]: ~3 nM
- EC50 (read off the curve) [20]: ~3 nM
- binding result [21]: no binding (tested: about 130 nM)
